Assay [1] concerns the target T1, pCEFL-GST-GIV-CT (1660–1870), mammalian expression (UniProt Q3V6T2).
T1 sequence: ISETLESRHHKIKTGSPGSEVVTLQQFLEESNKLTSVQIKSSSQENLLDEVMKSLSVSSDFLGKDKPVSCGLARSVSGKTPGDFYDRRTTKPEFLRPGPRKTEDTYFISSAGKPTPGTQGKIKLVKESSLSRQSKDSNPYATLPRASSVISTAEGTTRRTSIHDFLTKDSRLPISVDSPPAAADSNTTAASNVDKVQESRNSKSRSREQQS
Description: pull-down; GST-GIV-CT (aa 1660–1870, pCEFL) pulled down with glutathione beads from lysates of HEK293T cells co-expressing it with WT or mutant HA-NOD2; immunoblotting with anti-HA and anti-GST.

Amino acid sequences for entries named in this document (tags omitted). A change or cut given only in a name is not applied to a line headed by its entry. Residues count along the entry.
UniProt Q9HC29: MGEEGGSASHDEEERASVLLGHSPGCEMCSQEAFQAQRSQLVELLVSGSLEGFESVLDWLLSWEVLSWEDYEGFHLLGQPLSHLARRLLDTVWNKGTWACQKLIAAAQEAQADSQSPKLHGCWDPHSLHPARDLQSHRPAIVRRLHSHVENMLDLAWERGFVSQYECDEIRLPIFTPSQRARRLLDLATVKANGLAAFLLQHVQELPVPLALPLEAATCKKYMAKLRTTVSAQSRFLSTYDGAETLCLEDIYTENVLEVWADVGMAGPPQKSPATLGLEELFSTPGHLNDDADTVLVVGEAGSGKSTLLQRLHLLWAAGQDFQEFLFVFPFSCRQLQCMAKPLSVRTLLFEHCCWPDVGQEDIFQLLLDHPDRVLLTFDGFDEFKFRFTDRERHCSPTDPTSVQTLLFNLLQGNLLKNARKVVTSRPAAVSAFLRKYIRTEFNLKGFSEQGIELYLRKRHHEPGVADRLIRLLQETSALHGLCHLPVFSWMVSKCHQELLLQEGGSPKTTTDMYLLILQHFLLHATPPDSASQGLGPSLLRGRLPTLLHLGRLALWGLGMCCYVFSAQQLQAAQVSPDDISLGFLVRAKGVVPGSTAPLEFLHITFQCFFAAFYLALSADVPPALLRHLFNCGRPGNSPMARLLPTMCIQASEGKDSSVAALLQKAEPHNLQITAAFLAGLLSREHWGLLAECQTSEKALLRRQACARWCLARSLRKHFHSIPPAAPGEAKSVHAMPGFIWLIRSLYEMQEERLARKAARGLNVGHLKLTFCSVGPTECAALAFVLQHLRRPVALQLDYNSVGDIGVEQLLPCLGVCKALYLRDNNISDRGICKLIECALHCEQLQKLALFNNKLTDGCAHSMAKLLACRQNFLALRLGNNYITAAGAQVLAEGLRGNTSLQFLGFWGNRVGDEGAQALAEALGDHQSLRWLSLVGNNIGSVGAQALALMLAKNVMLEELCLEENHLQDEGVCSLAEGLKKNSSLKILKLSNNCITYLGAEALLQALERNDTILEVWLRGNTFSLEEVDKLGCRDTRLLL
GST-NOD2-LRR (pGEX-6P-2-NOD2-LRR, aa 744–1040): residues 744-1040 of Q9HC29
GST-NOD2-LRR-delΔ (pGEX-6P-2-NOD2-LRR-delΔ, aa 744–1006): residues 744-1006 of Q9HC29

The target in assay [2] is GIV-FLAG (CMV14-p3X FLAG-GIV WT, full length) (UniProt Q3V6T2). As to the kind of experiment: co-IP; HEK293T cells co-expressing GIV-FLAG and HA-NOD2 (or its variants, or HA-NOD1), with or without 10 μg/ml MDP for 1, 3 and 6 h; anti-HA mAb or anti-FLAG M2 and protein G Sepharose, 4°C; immunoblotting. (In general: In western blotting, separated proteins are transferred to a membrane and probed.)

The target in assay [3] is GST-NOD2-LRR-delΔ (pGEX-6P-2-NOD2-LRR-delΔ, aa 744–1006) (human) (UniProt Q9HC29). Description: pull-down; purified GST-NOD2-LRR proteins immobilised on glutathione Sepharose beads, incubated with purified His-GIV-CT in binding buffer (50 mM Tris-HCl pH 7.4, 100 mM NaCl, 0.4% Nonidet P-40, 10 mM MgCl2, 5 mM EDTA, 2 mM DTT), 4 h at 4°C; both purified.
Assay [4] addresses GST-NOD2-LRR (pGEX-6P-2-NOD2-LRR, aa 744–1040) (human) (UniProt Q9HC29). The description is as above.

These are yes or no findings as the source states them, for the method shown. For part of these data: In cells and extracts the contact can be indirect. Some binding calls cover weakened binding; strength is not graded here. For part of these data: Tags and fused reporters may be left off the sequences shown.

“HA-tagged NOD2-G908R (from UniProt Q9HC29 1-1040)”: the binding result in assay [1] is recorded as “binds”.
On to “HA-tagged NOD2-WT (from UniProt Q9HC29 1-1040)”, for which the binding entry in assay [2] and in assay [1] was “binds” throughout.
On to “HA-tagged NOD2-R702W (from UniProt Q9HC29 1-1040)”, for which the binding entry in assay [1] is “no binding”.

B1: His-GIV-CT (aa 1660–1870) (pET-28b-GIV-CT-WT) (domain or fragment, UniProt Q3V6T2 1660-1870)
chain: T1 sequence
B1: the binding entry in assay [3] is “no binding”; in assay [4], “binds”.

For the origin of these results see publication doi:10.1101/2025.01.21.634180.
